Test results published in PubChem BioAssay AID686979 (National Center for Advancing Translational Sciences (NCATS), 2013).
Where “and” joins values, the source holds several entries; their conditions need not be identical. Identical values can stand only once. In all, about 420,000 compounds went through this assay and about 50,000 (12%) were called active. The inconclusive results got no clear call from the source; some entries with a clear call stand among them for comparison. Calls come from the whole dose curve; as a rule, active = well fitted inhibition curve with a large enough effect; inconclusive = small, poorly fitted or top-dose-only effect; inactive = flat fitted curve, though single readings scatter. Potencies of inconclusive entries are left out as doubtful fits.
% is set by controls: 0 for no effect and ±100 for the full control effect; potency is the fitted concentration of half-maximal effect; tags give direction and shape of the fitted curve.

Test: qHTS for Inhibitors of human tyrosyl-DNA phosphodiesterase 1 (TDP1): qHTS in cells in presence of CPT; note: nearly all actives have a fitted effect of over 55% in size
Conditions: chicken DT40 Tdp1-/-;hTDP1 cells + 20 nM CPT, ATP luminescence, 48 h; activity change, negative = growth inhibition: at 46.2 µM (top of the series)
How it was run: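 Chicken DT40 Tdp1-/- cells complemented with human TDP1, 400 cells/well, exposed to compounds plus 20 nM camptothecin for at least 48 h at 37 C; viability read as ATP content by CellTiter-Glo luminescence.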
With `COc1cccc(CNc2nc(-c3cccnc3)nc3ccccc23)c1` the Potency was inconclusive [inhibitor, single point].
With `Cc1onc(-c2ccccc2Cl)c1C(=O)N1CCc2ccccc21` the Potency was inconclusive [inhibitor, single point].
For `CCCOc1ccc(N2C(=O)CC(NCCCN3CCC(C(N)=O)CC3)C2=O)cc1` (centres undefined), the Potency was active: 25.9 µM.
In the case of `COc1ccc(S(=O)(=O)N(CC(=O)Nc2ccccc2C(=O)N2CCOCC2)c2ccc(F)cc2)cc1`, the Potency is reported as inconclusive [inhibitor, single point].
In the case of `C[C@@H]1CN(C(=O)c2cc(COc3cccc(C(F)(F)F)c3)on2)C[C@H](C)O1`, the Potency is reported as inconclusive [inhibitor, single point].
In the case of `CCOC(=O)c1cnc(-n2nc(C)cc2C)nc1NCc1ccccc1`, the Potency is reported as active: 3.26 µM.
With `COC(=O)c1sccc1NC(=O)/C=C/c1c(Cl)cccc1Cl` the Potency was inconclusive [inhibitor, single point].
For `COc1ccccc1NC(=O)C1CCN(S(C)(=O)=O)CC1`, the “activity change, negative = growth inhibition” value was inactive: 4.12%.
For `CC(=O)c1ccc(NC(=O)c2cccc(NC(=O)N3CCSc4ncccc43)c2)cc1`, the “activity change, negative = growth inhibition” value was inactive: -2.2%.
With `CCOc1cc(CN2CCCC(CNC(=O)c3ccc(F)cc3)C2)ccc1OC` (centres undefined) the Potency was inconclusive [inhibitor, single point].
In the case of `Cc1ccc(-c2nnn(CC(=O)N(Cc3ccco3)C(C(=O)NC(C)(C)C)c3cccs3)n2)o1` (centres undefined), the Potency is reported as inconclusive [inhibitor, partial curve, poor fit].
For `Cc1cc(NC(=O)C(Cl)c2ccccc2)no1` (centres undefined), the Potency was active: 7.31 µM.
With `Cc1ccc(-n2c(SCC(N)=O)nnc2-c2ccco2)cc1` the “activity change, negative = growth inhibition” value was inactive: -19.5%.
With `O=C(Cn1cnc2c(OCc3ccccc3)ncnc21)N[C@H](CO)Cc1cc2ccccc2[nH]1` the “activity change, negative = growth inhibition” value was inactive: -6.62%.
With `COc1ccc(/C=C\c2nc(=O)c3ccccc3o2)cc1` the Potency was inconclusive [inhibitor, single point].
For `NC(=O)COc1ncnc2scc(-c3ccc(F)cc3)c12`, the activity change, negative = growth inhibition was inconclusive: -33.1% [inhibitor].
In the case of `CCCN(Cc1cc2cc(C)ccc2[nH]c1=O)C(=O)c1cccc(Cl)c1`, the Potency is reported as inconclusive [inhibitor, single point].
With `CC1CCN(S(=O)(=O)c2cc(C(=O)Nc3ccccn3)ccc2Br)CC1` the Potency was inconclusive [inhibitor, single point].
In the case of `CCOC(=O)c1ccc(NC(=O)C2C3CCCCC32)cc1` (centres undefined), the “activity change, negative = growth inhibition” value is reported as inactive: -24.7%.
For `CC1(C(=O)OCC(=O)NCCNC(=O)COC(=O)C2(C)CC2(Cl)Cl)CC1(Cl)Cl` (centres undefined), the Potency was inconclusive [inhibitor, single point].
With `O=C(c1cc2c(s1)CCCC2)N1CCN(c2ccccc2)CC1` the Potency was inconclusive [inhibitor, single point].
In the case of `CNc1nc(Cl)nc2ncn(C)c12`, the “activity change, negative = growth inhibition” value is reported as inactive: 0.0351%.
With `CC1(C(=O)Nc2nc3ccc(S(C)(=O)=O)cc3s2)CC1(Cl)Cl` (centres undefined) the activity change, negative = growth inhibition was inconclusive: -32.5% [inhibitor].
With `CCCN1C(=O)CC(c2ccc(OC)c(OC)c2)C1=O` (centres undefined) the “activity change, negative = growth inhibition” value was inactive: -0.0317%.
In the case of `CCOC(=O)c1cc(C#N)c(SCc2cccc3ccccc23)nc1C`, the “activity change, negative = growth inhibition” value is reported as inactive: -5.85%.
For `Cc1nc2cc(C(=O)N3CCc4ccccc43)ccc2n1-c1ccc(F)c(F)c1`, the “activity change, negative = growth inhibition” value was inactive: -21.3%.
In the case of `COc1ccccc1C(CNC(=O)CNC(=O)c1ccccc1Cl)N1CCCC1` (centres undefined), the “activity change, negative = growth inhibition” value is reported as inactive: -0.285%.
With `COc1cc(/C(C#N)=C/c2cccc3ccccc23)c([N+](=O)[O-])cc1OC` the Potency was inconclusive [inhibitor, single point].
With `Cc1ccc(Cc2c(C3CCCCC3)nc3ccc(C)cn23)cc1` the Potency was active: 18.4 µM.
With `Cc1cccc(C(=O)NC2(C(F)(F)F)N=C(c3ccccc3)N(Cc3ccccc3)C2=O)c1` (centres undefined) the Potency was inconclusive [inhibitor, single point].
In the case of `Cc1c(Cl)cccc1NC(=O)CN1C(=O)c2ccccc2Sc2ncccc21`, the Potency is reported as inconclusive [inhibitor, partial curve, poor fit].
With `O=C(N/N=C/c1ccccc1C(=O)O)C(=O)N1CCCCC1` the “activity change, negative = growth inhibition” value was inactive: 0.718%.
For `O=C(NC(=S)Nc1ccc(CN2CCOCC2)cc1)c1cccc([N+](=O)[O-])c1`, the “activity change, negative = growth inhibition” value was inactive: 0.266%.
For `O=C1C[C@@H]2c3c(cccc3CN1Cc1ccc(Cl)cc1)C[C@@H](O)[C@H]2O`, the Potency was “inactive”.
With `CCN(c1ccccc1)S(=O)(=O)c1cccc(C(=O)NCc2ccncc2)c1` the “activity change, negative = growth inhibition” value was inactive: -25.2%.
For `CCc1ccccc1Nc1nn2c(=O)c3ccc(C(=O)NCCc4ccccc4)cc3nc2s1`, the Potency was active: 10.3 µM.
In the case of `CCCCCCSc1nc2c(c(=O)[nH]c(=O)n2C)n1C`, the Potency is reported as inconclusive [inhibitor, single point].
In the case of `CNCc1ccccc1Sc1ccc(OC)c(OC)c1`, the Potency is reported as inconclusive [inhibitor, partial curve].
In the case of `COc1cc(OC)c(C2SCCN2S(=O)(=O)c2ccc(F)cc2)cc1OC` (centres undefined), the Potency is reported as active: 13 µM.
In the case of `Cc1cc(=O)nc2c3ccccc3n(CC(=O)Nc3ccccc3Br)n12`, the Potency is reported as inconclusive [inhibitor, single point].
With `Cc1ccc(CNC(=O)c2ccc3c(=O)c(O)c(-c4ccc(C)cc4)[nH]c3c2)cc1` the Potency was active: 4.11 µM.
For `Cc1ccc(Sc2c(O)c3ccccc3n(C)c2=O)cc1`, the “activity change, negative = growth inhibition” value was inactive: -25.8%.
In the case of `CSc1ccccc1C(=O)NC1CCSc2ccccc21` (centres undefined), the Potency is reported as inconclusive [inhibitor, single point].
In the case of `O=C(CSc1nc2ccccc2n1CC(=O)Nc1ccc(F)cc1F)Nc1ccc(F)cc1`, the Potency is reported as inconclusive [inhibitor, single point].
For `CCn1c(C)cs/c1=N\C(=S)Nc1ccccc1C`, the activity change, negative = growth inhibition was inconclusive: -35.9% [inhibitor].
In the case of `Nc1nc2n(n1)C(c1ccco1)CC(c1ccc(Cl)cc1Cl)N2` (centres undefined), the Potency is reported as inconclusive [inhibitor, single point].
In the case of `Cc1c(N=C/C=C/c2ccccc2)cnn1C`, the Potency is reported as inconclusive [inhibitor, single point].
In the case of `O=P(Cc1ccccc1)(Cc1ccccc1)c1ccccc1`, the Potency is reported as inconclusive [inhibitor, single point].
With `O=C(CC1(c2cccc(F)c2)CC(=O)N(Cc2cccnc2)C1=O)N1CCCCCCC1` (centres undefined) the Potency was inconclusive [inhibitor, single point].
With `O=C(NCc1cccnc1)c1ccc(NC(=O)c2ccc([N+](=O)[O-])cc2)cc1` the Potency was active: 13 µM.
In the case of `Cc1cc(C)cc(NC(=O)Nc2ccc(-n3ccc(C(F)(F)F)n3)cc2)c1`, the Potency is reported as inconclusive [inhibitor, single point].
With `COc1ccc(-c2cc3nc(-c4ccccc4)cc(N4CCN(C(=O)c5ccccc5)CC4)n3n2)cc1` the Potency was active: 14.6 µM.
For `O=C(OCc1c(-c2ccccc2)ncc2ccccc12)c1cccs1`, the Potency was inconclusive [inhibitor, single point].
In the case of `Cc1ccc2nc(Cl)c(C3CC(c4cccs4)=NN3C(=O)CCCC(=O)O)cc2c1` (centres undefined), the “activity change, negative = growth inhibition” value is reported as inactive: -18.5%.
In the case of `O=C(Nc1ccccc1)c1ccc2nc(-c3ccco3)c(-c3ccco3)nc2c1`, the Potency is reported as active: 10 µM and active: 20.6 µM.
With `N#Cc1cnn2cc(-c3ncc(C(F)(F)F)cc3Cl)cnc12` the activity change, negative = growth inhibition was inconclusive: -32.8% [inhibitor].
In the case of `COc1cc(O)cc(O)c1C(=O)/C=C/c1ccccc1`, the Potency is reported as active: 14.6 µM.
For `CC1CC2C3CC(F)C4=CC(=O)C=C[C@@]4(C)[C@@]3(F)C(O)C[C@]2(C)[C@]1(O)C(=O)COC(=O)C(C)(C)C` (some centres undefined), the “activity change, negative = growth inhibition” value was inactive: -0.424%.
With `COCCCN1CCc2nc(SCC(=O)Nc3ccc(C)c(Cl)c3)[nH]c(=O)c2C1` the Potency was inconclusive [inhibitor, single point].
With `CN(C)CC(C)(C)CNC(=O)c1cnn(-c2ncc3c(n2)-c2ccccc2CC3)c1-c1ccco1` the “activity change, negative = growth inhibition” value was inactive: -20.1%.
In the case of `O=C(c1cc(-c2ccc(Br)cc2)n[nH]1)N1CCN(C(=O)c2ccccc2Br)CC1`, the Potency is reported as inconclusive [inhibitor, partial curve].
For `COCCn1c(-c2ccccc2)nc2oc3cc(OC)ccc3c(=O)c2c1=O`, the “activity change, negative = growth inhibition” value was inactive: -11.4%.
In the case of `Cc1c(Cl)c([N+](=O)[O-])nn1CCCC(=O)Nc1cccc(Cl)c1`, the Potency is reported as inconclusive [inhibitor, single point].
In the case of `CCOc1ncccc1C(=O)Nc1cccc(-c2nc3cccnc3s2)c1`, the Potency is reported as inconclusive [inhibitor, partial curve].
With `C=CCN(c1ccc(OC)cc1)S(=O)(=O)c1ccc(Cl)c(C(=O)OCC(=O)NC2CC2)c1` the “activity change, negative = growth inhibition” value was inactive: -9.87%.
With `CCOC(=O)C1=CCN(S(=O)(=O)c2ccccc2Cl)C1c1cccc(F)c1` (centres undefined) the Potency was inconclusive [inhibitor, single point].
In the case of `Cc1ccc(N2CC(c3nnc(Cc4ccc(Cl)cc4)o3)CC2=O)cc1` (centres undefined), the Potency is reported as inconclusive [inhibitor, single point].
In the case of `Cc1cccc(C)c1NC(=O)CN1C(=O)NC(C)(CCc2ccccc2)C1=O` (centres undefined), the “activity change, negative = growth inhibition” value is reported as inactive: 2.26%.
For `C=CCOc1ccc(/C=N/NC(=O)c2cc3c(OC)cc(OC)cc3[nH]2)cc1`, the Potency was inconclusive [inhibitor, single point].
For `CC1CN(C(=O)COC(=O)c2ccc(F)cc2Cl)CC(C)O1` (centres undefined), the “activity change, negative = growth inhibition” value was inactive: 25.6%.
For `CON(C)C(=O)c1ccccc1N(C)C(=O)OC(C)(C)C`, the “activity change, negative = growth inhibition” value was inactive: -11.2%.
For `C/C(Cl)=C\COc1cc(C)nc2c(Br)cccc12`, the “activity change, negative = growth inhibition” value was inactive: -1.76%.
For `CCCCNc1sc(S(=O)(=O)CC)nc1S(=O)(=O)c1ccc(C)cc1`, the Potency was inconclusive [inhibitor, single point].
For `CCOCCCNc1nc2c(c(=O)n(C)c(=O)n2C)n1CCCc1ccccc1`, the Potency was active: 16.4 µM.
